From PubChem BioAssay AID485281 (National Center for Advancing Translational Sciences (NCATS), 2010)
About 260 (0.074%) of roughly 350,000 compounds were called active. The inconclusive results got no clear call from the source; some entries with a clear call stand among them for comparison. Calls come from the whole dose curve; as a rule, active = well fitted inhibition curve with a large enough effect; inconclusive = small, poorly fitted or top-dose-only effect; inactive = no such curve, though single readings can be large or run the other way. A potency beside an inconclusive call is a rough fit, not a confirmed value.

These compounds were tested against Ferritin light chain (Equus caballus) (UniProt P02791) (assay: qHTS Assay for Identification of Novel General Anesthetics). Details: apoferritin/1-aminoanthracene competitive binding, fluorescence; activity change, negative = displacement: at 77.5 µM (top of the series).
How it was run: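 Steps: apoferritin (10 uM) was premixed with half-saturated 1-AMA in PBS, compounds were pin-transferred, plates stood 10 min at room temperature, fluorescence was read at 380/535 nm, and curves were fitted with a Hill equation.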
% is set by controls: 0 for no effect and ±100 for the full control effect; potency is the fitted concentration of half-maximal effect; tags give direction and shape of the fitted curve.
Note: nearly all actives have a fitted effect of over 20% in size.

Chain of UniProt P02791 (P02791 whole entry, looked up): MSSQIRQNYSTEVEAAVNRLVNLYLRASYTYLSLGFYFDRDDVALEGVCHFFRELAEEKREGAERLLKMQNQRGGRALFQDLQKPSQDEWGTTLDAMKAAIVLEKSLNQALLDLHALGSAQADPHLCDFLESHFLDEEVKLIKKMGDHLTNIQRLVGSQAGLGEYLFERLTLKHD

Potency, inactive:
CCCc1nnc(SCC(=O)O)n1/N=C/c1ccc2c(c1)OCO2, Cc1oc(-c2ccccc2F)nc1CS(=O)(=O)CC(=O)N1CCN(c2ccc(Cl)cc2)CC1, O=C1C=C(c2ccccc2)C[C@H](c2cccs2)[C@H]1n1nnc([N+](=O)[O-])n1, c1ccc(Nc2ccccc2Nc2ccccn2)nc1, CN(C)CCCNc1cc(-c2ccccc2)nc2cc(-c3cccc(F)c3)nn12, O=C(O)c1cnn2c(C(F)(F)F)cc(-c3ccco3)nc12, O=C(NCc1ccc(Cl)cc1)c1cc2ccc3cccnc3c2[nH]1, CCOc1cc(C2Nc3ccccc3C(=O)N2c2ccccc2OC)ccc1O (centres undefined), Cc1ccc(C)c(NC(=O)CCCn2c(C)c3cnn(-c4ccccc4)c(=O)c3c2C)c1, COCCSc1ccccc1C(=O)Nc1cc(C)on1, O=C(NCCc1ccc(Cl)cc1)c1cc2ccccn2n1, Cc1ccc2cc3cc(C(=O)N4CC(C)CC(C)C4)oc3nc2c1 (centres undefined), Cc1ccc(F)cc1NC(=O)N1CCCN(C(=O)OC(C)(C)C)CC1, CCN(CC)c1ccc(/C=C2\SC(=O)N(C(C)C)C2=O)o1

Potency, inconclusive:
Cc1ccc(N2C(=O)Nc3ccccc3S2(=O)=O)cc1Cl 25.1 µM [inhibitor, partial curve], Cc1cc(C)c2sc(N(CCCN(C)C)C(=O)CN3C(=O)c4ccccc4C3=O)nc2c1 31.6 µM [inhibitor, partial curve], COc1ccc(CNC(=O)c2nnn(-c3cccc(C(F)(F)F)c3)c2N)cc1 7.94 µM [inhibitor, full curve], O=[N+]([O-])c1cccc2c(S(=O)(=O)N3CCCCC3)cccc12 35.5 µM [inhibitor, partial curve], N#Cc1c(N)sc2c1CCN(C(=O)OCc1ccccc1)C2 22.4 µM [inhibitor, partial curve], O=C(Nc1cc(-c2nc3ncccc3o2)ccc1Cl)c1cccs1 17.8 µM [inhibitor, partial curve], Cc1cc(C(=O)COC(=O)c2n[nH]c3ccccc23)c(C)n1CC1CCCO1 (centres undefined) 10 µM [inhibitor, partial curve], Cc1ccccc1OCc1nnc(SCC(=O)Nc2ccc(N3CCOCC3)c(Cl)c2)n1C 39.8 µM [inhibitor, partial curve], CCCS(=O)(=O)c1c(S(=O)(=O)CCC)c2cnccn2c1C(=O)c1ccc(CC)cc1 39.8 µM [inhibitor, single point], Clc1cccc(NCc2nnc(SCc3ccccc3)o2)c1 10 µM [inhibitor, partial curve], COc1ccc(NC(=O)CCCSc2nc(-c3ccco3)cc(C(F)(F)F)n2)cc1 11.2 µM [inhibitor, partial curve], Cc1csc(C(=O)NCC(=O)NNC(=O)c2cccc(Cl)c2)c1 28.2 µM [inhibitor, partial curve], CC(=O)N1CCN(c2ccccc2NC(=S)NC(=O)c2cc3ccccc3o2)CC1 14.1 µM [inhibitor, partial curve], COc1ccc(CNC(=O)C2=CC(c3ccc(C)cc3)=NS(=O)(=O)N2C)cc1 10 µM [inhibitor, partial curve], O=C(CCc1nc2ccccc2s1)OCc1ccccc1F 25.1 µM [inhibitor, partial curve], CC(C)(C)c1ccc(C(=O)Nc2ccc(C(=O)OCc3cc(=O)n4ccsc4n3)cc2)cc1 44.7 µM [inhibitor, single point], Cc1cc(NC(=O)c2cc(-c3cccnc3)nc3c(C)c(C)ccc23)no1 31.6 µM [inhibitor, single point], O=C(NNc1ccc([N+](=O)[O-])cc1)c1ccccc1Cl 31.6 µM [inhibitor, single point], CCOC(=O)COc1cc([N+](=O)[O-])cc2cccnc12 35.5 µM [inhibitor, single point], COc1ccc(C)cc1NC(=O)C1COc2ccccc2O1 (centres undefined) 25.1 µM [inhibitor, partial curve], CCOC(=O)c1c(C)[nH]c(C)c1C(=O)COC(=O)c1cccc(S(=O)(=O)N(CC)CC)c1 39.8 µM [inhibitor, partial curve], COc1ccc(CCNC(=O)c2cc3c(=O)n4ccccc4nc3n(CC3CCCO3)c2=N)cc1OC (centres undefined) 17.8 µM [inhibitor, partial curve], CC1CCN(C(=O)CSc2nnc(CNC(=O)COc3ccc(Cl)cc3)o2)CC1 15.8 µM [inhibitor, partial curve], CCOC(=O)c1ccc(N2C(=O)c3n[nH]c(C)c3C2c2ccccc2)cc1 (centres undefined) 15.8 µM [inhibitor, partial curve], CC(C)=CC[C@@H](O)C1=CC(=O)c2c(O)ccc(O)c2C1=O 28.2 µM [inhibitor, partial curve], CCOC(=O)C1(Cc2ccccc2)CCN(Cc2cccc(OC)c2O)CC1 44.7 µM [inhibitor, single point], Cc1cc([N+](=O)[O-])ccc1-c1ccc(C2Nc3ccccc3C(=O)N2O)o1 (centres undefined) 28.2 µM [inhibitor, partial curve], CC(C)C[C@@H](C(=O)NC1CCN(Cc2ccccc2)CC1)N1C(=O)N2CCc3c([nH]c4ccccc34)[C@@]2(C)C1=O 0.794 µM [inhibitor, full curve, poor fit], O=C(COc1ccc([N+](=O)[O-])cc1)NCCC1=CCCCC1 35.5 µM [inhibitor, single point]

Activity change, negative = displacement, inactive:
COC(=O)NC(/C(C(=O)OC)=C(\C)NCc1ccccc1)c1ccc(F)cc1 (centres undefined) 10.8% [at 15.3 µM]
